Our source for the binding signal values is article PMC6451091.

The other results are listed elsewhere or left out. For part of these data: At the low end of the ranking the order means little. For part of these data: Measured with an extract: partners may take part in the binding.

What all share (conditions): 20 mM HEPES pH 7.9, 100 mM NaCl, 1 mM DTT, 0.2 mg/mL BSA, 0.02% Triton X-100, 2% milk, 0.4 mg/mL salmon testes DNA; 1 h; temperature not stated; high values mean tight binding; double strand, one strand shown; sequences stand for … in GCCTAGCAC…GTGCTAGGTCTTGATTCGCTTGACGCTGCTG
For assay [1], the target named is PU.1 (IVT) (UniProt P17947). Nature of the assay: protein-binding microarray (PBM).
Assay [2] deals with PU.1 (endogenous, THP-1 nuclear extract) (UniProt P17947). The experiment in a line: nuclear extract protein-binding microarray (nextPBM).
Assay [3] has as its target T1, FLI1 (endogenous, THP-1 nuclear extract) (UniProt Q01543).
T1 sequence: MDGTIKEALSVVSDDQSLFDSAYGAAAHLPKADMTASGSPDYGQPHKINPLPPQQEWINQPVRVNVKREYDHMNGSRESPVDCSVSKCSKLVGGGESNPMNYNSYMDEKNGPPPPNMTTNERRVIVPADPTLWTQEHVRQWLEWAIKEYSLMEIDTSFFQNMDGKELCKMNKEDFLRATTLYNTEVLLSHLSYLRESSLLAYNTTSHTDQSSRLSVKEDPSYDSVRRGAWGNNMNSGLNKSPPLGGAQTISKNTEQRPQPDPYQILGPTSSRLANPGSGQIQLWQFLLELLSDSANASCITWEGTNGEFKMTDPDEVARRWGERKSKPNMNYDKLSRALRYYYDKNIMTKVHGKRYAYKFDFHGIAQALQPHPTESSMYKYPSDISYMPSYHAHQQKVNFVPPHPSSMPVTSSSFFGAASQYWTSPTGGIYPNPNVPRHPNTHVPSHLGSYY
Described as above.

Take AGAAAGAGGAAGTGGGTGTT: the binding signal worked out at 8 z-score in assay [1], 7.31 z-score in assay [2] and 4.31 z-score in assay [3].

As to TTGCTGAGGAAGTGGATGAT, the binding signal in assay [1] stood at 2.68 z-score; in assay [2] it was 2.72 z-score; in assay [3] it was 2.12 z-score.

As for CAAGGAAGGAAGTGGTGAGA, the results for the binding signal in assay [1], in assay [2] and in assay [3] were 2.33 z-score, 2.32 z-score and 2.15 z-score, respectively.

As to AAAATGAGGAAATGTCAAAA, the binding signal came to 5.05 z-score in assay [1], 4.56 z-score in assay [2] and 2.02 z-score in assay [3].

On to AAAAAAAGGAAGTGGTGGTT, for which the binding signal in assay [1] worked out at 6.87 z-score; in assay [2], 6.71 z-score; in assay [3] it was 3.6 z-score.

With AAAAACAGGAACTGGCCAGG, the binding signal came out at 5.89 z-score in assay [1], 6.56 z-score in assay [2] and 2.54 z-score in assay [3].

Turning to TAAAAGAGGAAATGTGATGA, the figures for the binding signal in assay [1], in assay [2] and in assay [3] were 4.59 z-score, 4.5 z-score and 2.61 z-score, respectively.

For the sequence AAATTAAGGAAGTGAGGGTA, the binding signal came to 5.76 z-score in assay [1], 6.47 z-score in assay [2] and 2.51 z-score in assay [3].

For TGTTTGAGGAAGTGGTGTGG, the binding signal in assay [1] was 5.87 z-score; in assay [2] it was 6.27 z-score; in assay [3] it was 2.7 z-score.

For GAAAAGAGGAAGTTAAAGAA, the binding signal in assay [1] was 8.52 z-score; in assay [2], 7.51 z-score; in assay [3], 4.49 z-score.

With CAATTGAGGAACTGATGCGG, the binding signal in assay [1] was 4.94 z-score; in assay [2], 5.5 z-score; in assay [3], 1.46 z-score.

Regarding GGGAAGGGGAAGTGGTGGCA, the binding signal in assay [1] stood at 4.91 z-score; in assay [2], 5.53 z-score; in assay [3] it was 2.58 z-score.

Take AGGTTGAGGAAGTGAATTCT: the binding signal in assay [1] was 4.62 z-score; in assay [2] it was 4.52 z-score; in assay [3], 2.46 z-score.

In the case of AGAATGAGGAACTGGGAAAG, the results for the binding signal in assay [1], in assay [2] and in assay [3] were 4.85 z-score, 5.85 z-score and 1.42 z-score, respectively.

As for CCAAAGGGGAAGTGCTAAAC, the binding signal in assay [1] stood at 5.4 z-score; in assay [2], 6.34 z-score; in assay [3], 2.51 z-score.

For the sequence GAAAACAGGAAGTCCCACAG, the binding signal came to 7.48 z-score in assay [1], 7.09 z-score in assay [2] and 4.43 z-score in assay [3].

On to TGGCAGAGGAAGTACTGTGA, for which the binding signal in assay [1] is 3.97 z-score; in assay [2], 3.41 z-score; in assay [3] it was 2.48 z-score.

As to GAGGAAGGGAAGTGGATAGA, the binding signal in assay [1] came to 2.89 z-score; in assay [2], 2.72 z-score; in assay [3], 2 z-score.

Consider GGGAAGGGGAAGTGGAGAGG, for which the figures for the binding signal in assay [1], in assay [2] and in assay [3] were 4.97 z-score, 5.52 z-score and 2.49 z-score, respectively.

In the case of GAGAACAGGAAGTCCCATAG, the binding signal in assay [1] turned out to be 4.24 z-score; in assay [2], 5.15 z-score; in assay [3], 4.18 z-score.

With TTTTTGAGGAAGTGATAAAA, the results for the binding signal in assay [1], in assay [2] and in assay [3] were 6.89 z-score, 6.54 z-score and 3.08 z-score, respectively.

Consider AAAAAAGGGAAGTGCATTTG, for which the binding signal came out at 8.12 z-score in assay [1], 7.06 z-score in assay [2] and 3.51 z-score in assay [3].

For CAAAAAGCGAAGTGGATGCT, the values for the binding signal in assay [1], in assay [2] and in assay [3] were 1.23 z-score, 0.911 z-score and 0.607 z-score, respectively.

On to GAAAACAGGAAGTCCCATCG, for which the binding signal in assay [1] was determined as 7.4 z-score; in assay [2] it was 6.92 z-score; in assay [3] it was 4.55 z-score.

On to GAAAACAGGAAGTGGGGATG, for which the values for the binding signal in assay [1], in assay [2] and in assay [3] were 7.43 z-score, 7.02 z-score and 5.41 z-score, respectively.

On to AAAAAAAGGAAGTGCCTTCA, for which the binding signal was 6.58 z-score in assay [1], 6.76 z-score in assay [2] and 3.15 z-score in assay [3].

As for TGAATGAGGAAATGGGTCGA, the binding signal in assay [1] came out at 3.26 z-score; in assay [2] it was 3.61 z-score; in assay [3], 1.9 z-score.

On to GATAAGGGGAAGTGAGTCAT, for which the binding signal in assay [1] amounted to 5.78 z-score; in assay [2] it was 6.35 z-score; in assay [3], 2.46 z-score.

Regarding CTAAGAAGGAACTGGCCCTT, the binding signal in assay [1] was 1.38 z-score; in assay [2], 1.77 z-score; in assay [3], 0.536 z-score.

Turning to AGAAACAGGAAGTACTGTGG, the binding signal in assay [1] was determined as 7.84 z-score; in assay [2], 7.22 z-score; in assay [3], 4.91 z-score.

GAAAAGAGGAAATGGTCCTT: the binding signal in assay [1] was determined as 5.98 z-score; in assay [2], 6.46 z-score; in assay [3], 3.24 z-score.

For ATTAAACGGAAGTGAAAGGT, the binding signal was found to be 3.92 z-score in assay [1], 4.05 z-score in assay [2] and 4.54 z-score in assay [3].

As for GATAAGTGGAAGTCCTCTGT, the values for the binding signal in assay [1], in assay [2] and in assay [3] were 1.98 z-score, 1.84 z-score and 1.17 z-score, respectively.

TCAGTGGGGAAGTGCTAGGG: the binding signal in assay [1] worked out at 2.86 z-score; in assay [2], 3.12 z-score; in assay [3], 1.24 z-score.

As to GGGGTGAGGAAGTGCCTGGG, the binding signal was found to be 3.52 z-score in assay [1], 3.81 z-score in assay [2] and 1.88 z-score in assay [3].

As to GGGATGGGGAAGTCCTCAAG, the binding signal in assay [1] came to 4.1 z-score; in assay [2], 4.01 z-score; in assay [3], 1.37 z-score.

With GAGAAGAGGAAGTGGACTGA, the binding signal in assay [1] was 6.37 z-score; in assay [2], 6.57 z-score; in assay [3] it was 3.6 z-score.

For GAAAAGAGGAAGTCAAACTG, the binding signal came out at 7.89 z-score in assay [1], 7.18 z-score in assay [2] and 4.53 z-score in assay [3].

With GTGGAGGGGAAGTGATCTCG, the binding signal in assay [1] came to 3.73 z-score; in assay [2] it was 3.91 z-score; in assay [3] it was 2.25 z-score.

Consider TCTAAAAGGAAGTCAGCTAT, for which the binding signal in assay [1] came to 1.76 z-score; in assay [2], 1.98 z-score; in assay [3] it was 1.9 z-score.

For the sequence AAAAAAAGGAAGTCTATCCC, the binding signal in assay [1] came out at 6.05 z-score; in assay [2] it was 5.43 z-score; in assay [3], 2.4 z-score.

Take TAAATGGGGAAGTGCTTGAC: the binding signal in assay [1] was determined as 6.87 z-score; in assay [2], 6.71 z-score; in assay [3], 2.81 z-score.

For the sequence GAAAAGAGGAAATGAGAGAG, the binding signal in assay [1] turned out to be 5.36 z-score; in assay [2], 6.05 z-score; in assay [3], 2.99 z-score.

For AAAAAAAGGAACTGGCTTGA, the binding signal was found to be 4.72 z-score in assay [1], 4.4 z-score in assay [2] and 1.47 z-score in assay [3].

Take AGAATGGGGAAGTGAATCTG: the binding signal in assay [1] was 6.95 z-score; in assay [2], 6.92 z-score; in assay [3], 2.84 z-score.

For the sequence CTGAGGAGGAAGTGTGCTTG, the values for the binding signal in assay [1], in assay [2] and in assay [3] were 3.98 z-score, 4.22 z-score and 2.5 z-score, respectively.

Regarding AAAAGGAGGAAGCGGTGAGC, the binding signal worked out at 3.75 z-score in assay [1], 4.12 z-score in assay [2] and 2.06 z-score in assay [3].

Take GTAAAGGGGAAGTCACAAAA: the binding signal in assay [1] amounted to 5.63 z-score; in assay [2] it was 6.29 z-score; in assay [3], 2.11 z-score.

Take CTAATGAGGAACTGGCCCGA: the binding signal in assay [1] was 3.99 z-score; in assay [2], 4.29 z-score; in assay [3], 0.93 z-score.

On to ACAAAGAGGAAGTCCCATTT, for which the binding signal in assay [1] is 7.29 z-score; in assay [2], 6.68 z-score; in assay [3] it was 3.6 z-score.

For TGGAAAAGGAAGTACTGTGA, the binding signal in assay [1] was determined as 3.75 z-score; in assay [2], 3.3 z-score; in assay [3] it was 2.13 z-score.

Regarding CAGAAGAGGAAGTGGTGAGG, the results for the binding signal in assay [1], in assay [2] and in assay [3] were 6.33 z-score, 6.58 z-score and 3.47 z-score, respectively.

With AAATTAAGGAACTGAAAAAC, the binding signal in assay [1] is 3.96 z-score; in assay [2] it was 4.04 z-score; in assay [3] it was 0.898 z-score.

AATTAGAGGAAGTGGATTAT: the binding signal in assay [1] is 6.24 z-score; in assay [2], 6.41 z-score; in assay [3], 3.17 z-score.

Turning to GCTGGGAGGAAGTGGGCTGG, the binding signal in assay [1] was 3.1 z-score; in assay [2], 3.43 z-score; in assay [3] it was 2.63 z-score.

Take AAGAAAAGGAAGTGGAAAAC: the binding signal came out at 4.07 z-score in assay [1], 3.53 z-score in assay [2] and 2.45 z-score in assay [3].

As to CAATTAAGGAAGTGCTTGAG, the binding signal worked out at 5.32 z-score in assay [1], 5.82 z-score in assay [2] and 2.58 z-score in assay [3].

Take CAAATGTGGAAGTGATATGC: the binding signal came to 4.07 z-score in assay [1], 4.12 z-score in assay [2] and 1.44 z-score in assay [3].

Take GAAAAGAGGAAATGAGGTAG: the binding signal in assay [1] worked out at 6.07 z-score; in assay [2], 6.31 z-score; in assay [3], 3.4 z-score.

As to CGTGAGAGGAAGTGGGGGGT, the binding signal in assay [1] worked out at 3.86 z-score; in assay [2] it was 3.94 z-score; in assay [3], 2.85 z-score.
